The source of these data is PubChem BioAssay AID1240 (Sanford-Burnham Center for Chemical Genomics, 2008).

The campaign covered roughly 50,000 compounds. About 800 (1.6%) showed an effect of 50% or more. The list shows a part of the results.

The target in this test is Bcl-2-like protein 10 (Homo sapiens) (UniProt Q9HD36). In words: TR3 peptide-Bcl-B binding displacers, biochemical primary FP assay, phenotype converters (AID 1240).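 Further: 0% = Bcl-B with tracer peptide and DMSO and 100% = tracer peptide lacking Bcl-B.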 As to conditions: GST-Bcl-B / FITC-TR3 peptide fluorescence polarization; stronger effect = higher value; compound at 3.75 mg/L.
Chain of UniProt Q9HD36 (Q9HD36 whole entry, looked up): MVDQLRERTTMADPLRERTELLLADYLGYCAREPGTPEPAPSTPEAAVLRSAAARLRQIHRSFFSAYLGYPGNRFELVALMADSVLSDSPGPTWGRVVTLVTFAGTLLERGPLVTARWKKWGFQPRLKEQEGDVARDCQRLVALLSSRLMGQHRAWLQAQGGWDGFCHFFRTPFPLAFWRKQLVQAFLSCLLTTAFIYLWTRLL
Take `O=C1NN(c2ccccc2)C(=O)/C1=C/c1ccc(-c2cccc(C(=O)O)c2)o1`: the displacement was determined as 15.5%.

With `CCOc1ccccc1/C=N/NC(=O)CC1C(=O)NN=C1C` (stereo not drawn), the displacement worked out at 4.6%.

As to `CCCC(C)NC(=O)c1ccc(Cl)cc1` (stereo not drawn), the displacement was 3.6%.

Consider `COc1ccc(-n2c(O)c(C=Nc3ccccc3OC)c(=O)[nH]c2=O)cc1`, for which the displacement is -10.3%.

For `C=C(C)C1CC=C(C)C(=NNC(=O)c2cccc([N+](=O)[O-])c2)C1` (stereo not drawn), the displacement came out at 0.4%.

With `COc1ccccc1NC(=O)C(=O)N/N=C/c1cccc(OC)c1O`, the displacement is -4.1%.

In the case of `COc1ccc(N(CC(=O)NC(C)(C)C)S(=O)(=O)c2ccc(C)c([N+](=O)[O-])c2)cc1`, the displacement came to 1.9%.

For `CC(C)(C)c1csc(NC(=O)C(c2ccccc2)c2ccccc2)n1`, the displacement was -2.6%.

Take `CN1C[N+]([O-])=C(c2ccccc2)C1(C)C`: the displacement turned out to be 8.7%.

On to `Cc1ccc(N2C(=O)NC(=O)/C(=C\c3cc(Br)ccc3OCC(=O)O)C2=O)cc1`, for which the displacement is -7.8%.

As for `COc1cc(C(O)c2nc3ccccc3n2C)cc(OC)c1OC` (stereo not drawn), the displacement stood at 2.1%.

`Cc1ccc(OCC(=O)O/N=C(\N)c2ccncc2)c(C)c1`: the displacement came out at 2.5%.

Take `CCCC(=O)C1=C(O)C(C(=O)OC)C(C)(C)C/C1=N\c1nc2ccccc2[nH]1` (stereo not drawn): the displacement was determined as 3.2%.

Consider `CCOC(=O)c1c(NC(=S)NCc2ccccc2)sc2c1CC(C)(CC)OC2` (stereo not drawn), for which the displacement is -7.8%.

With `Cc1ccc(CC2S/C(=N\N=C\c3ccc(N(C)C)cc3)NC2=O)cc1` (stereo not drawn), the displacement is -2.2%.

Consider `O=C(N/N=C\c1ccc(Cl)cc1Cl)c1cccc2cc[nH]c12`, for which the displacement was 1%.

As to `O=C(c1ccccc1)N1CCN(C2CCN(Cc3ccccc3)CC2)CC1`, the displacement is -1.6%.

As for `Cc1nc(N)sc1-c1csc(Nc2ccccn2)n1`, the displacement is -8.6%.

`COc1ccccc1NC(=O)CC1S/C(=N\N=C2/CCCc3ccccc32)NC1=O` (stereo not drawn): the displacement was -3.9%.

As to `NNc1nc(-c2ccccc2)c2cc(Br)ccc2n1`, the displacement came to 6.9%.

In the case of `O=C(N/N=C/c1ccccc1O)C(=O)N1CCCCCC1`, the displacement is -14.6%.

With `CC(=O)Oc1ccc(NC(=O)CC2Nc3cc(C)c(C)cc3NC2=O)cc1` (stereo not drawn), the displacement was -8%.

Regarding `CC(C)c1ccccc1OCCCN1CCCC1`, the displacement turned out to be 3.3%.

In the case of `Cc1ccnc(NS(=O)(=O)c2ccc3ccccc3c2)c1`, the displacement is -8%.

Regarding `Cc1onc(-c2ccccc2)c1C(=O)Nc1ccc(O)c(C(=O)O)c1`, the displacement came out at 10.5%.

With `CCOC(=O)c1ccc(N2NC(=O)/C(=C/c3ccc(-c4ccc(Cl)c(C(=O)O)c4)o3)C2=O)cc1`, the displacement is 10.5%.

Turning to `CCN(CC)S(=O)(=O)c1ccc(NC(=S)Nc2ccc(F)cc2)cc1`, the displacement was -4.5%.

For the compound `C#CCOC(=O)/C(=C/c1ccc(F)cc1)NC(C)=O`, the displacement is -8.4%.

Consider `COc1ccc(CNc2ccc(Br)cc2C(=O)O)c(OC)c1`, for which the displacement was -13%.

For `Cc1ccc2cc(S(=O)(=O)N=Nc3c(O)[nH]c4ccc([N+](=O)[O-])cc34)ccc2c1`, the displacement was found to be 15%.

For `CNS(=O)(=O)c1ccccc1C(=O)NNC1=NS(=O)(=O)c2ccccc21`, the displacement came out at 7.2%.

Take `Cc1nn(C(=O)c2cccnc2)c(C)c1Sc1ccc(Br)cc1`: the displacement is -13.2%.

Regarding `CC(Oc1ccc(Cl)cc1Cl)C(=O)Nc1ccccn1` (stereo not drawn), the displacement is -7.1%.

With `COc1ccc(OC)c(NC(=O)c2ccc(CN(c3ccc(C)c(C)c3)S(C)(=O)=O)cc2)c1`, the displacement was found to be 1.9%.

Turning to `O=C(Cc1ccc(Cl)cc1)NCc1ccccn1`, the displacement came out at 11.4%.

Regarding `CCOC(=O)c1[nH]cnc1C(=O)Nc1ccccc1`, the displacement is -1.3%.

Turning to `Cc1ccc2nsnc2c1NC(=O)c1ccc(-c2ccc([N+](=O)[O-])cc2)o1`, the displacement was 16.6%.

With `CN(C)c1ccc(C(C#N)(C#N)C2C(=O)c3ccccc3C2=O)cc1`, the displacement turned out to be 12%.

On to `Cc1nc(C)n(C)c(=O)c1-c1ccccc1`, for which the displacement amounted to 3.9%.

For `CCOC(=O)N1CCN(C(=S)Nc2ccccc2)CC1`, the displacement was -1.9%.

As to `COc1ccc(C(=O)c2ccc(Cl)cc2)c2ccccc12`, the displacement turned out to be 13.9%.

As for `CCN1C(=O)/C(=C\c2cn(CCOc3ccccc3)c3ccccc23)SC1=S`, the displacement worked out at 20.9%.

In the case of `CC1=C(C#N)C(=O)NC(=O)/C1=C\c1ccc(-c2ccc(Cl)c(Cl)c2)o1`, the displacement was -1%.

For `NC1=NC(=O)/C(=C/c2ccc(OCc3cccc4ccccc34)cc2)S1`, the displacement is -26.6%.

With `N#CCNC(=O)c1ccccc1[N+](=O)[O-]`, the displacement is -14.7%.

Take `O=C(Nc1cc(Oc2cccnc2)cc([N+](=O)[O-])c1)c1cc2nc(-c3ccco3)cc(C(F)(F)F)n2n1`: the displacement worked out at 38.5%.

Turning to `CC(=O)CCc1oc2ccc(Br)cc2c1-c1ccc(C)o1`, the displacement is -10.4%.

As for `CCCn1c(NC(=O)c2ccc(Cl)cc2)nc2ccccc21`, the displacement is 14.6%.

With `COc1ccc(CSc2nc3ccc(Br)cc3c(=O)n2-c2ccccc2)cc1`, the displacement was 6.2%.

For the compound `CCc1c(C)sc(NC(=O)c2ccc(Cl)cc2Cl)c1C#N`, the displacement was -11.8%.

Consider `COc1ccc(-c2csc(-n3[nH]c(C)c(N=Nc4c(C)cccc4[N+](=O)[O-])c3=O)n2)cc1`, for which the displacement was -29.1%.

With `Cc1ccc(NC(=O)C(=O)NCc2ccc3c(c2)OCO3)cc1`, the displacement was 12.8%.

For `COc1ccc(NC(=O)c2ccc(NC(=O)C(C)(C)C)cc2)cc1`, the displacement is 14.3%.

On to `O=C(Oc1ccc(Cl)cc1)c1c(F)cccc1F`, for which the displacement was 16.4%.

Consider `N/C(Cc1ccc(Cl)cc1)=N\OC(=O)c1ccc(Cl)c([N+](=O)[O-])c1`, for which the displacement was -6.4%.

For the compound `COc1ccc(NC(=O)C(C)Sc2ccc(Cl)cc2)cc1` (stereo not drawn), the displacement is -4.2%.

Take `C=CCc1cccc(/C=N/NC(=O)c2cc(-c3ccc(OC)cc3)n[nH]2)c1O`: the displacement was -23.1%.

As to `Cc1cc(C)c2nc3s/c(=C\c4ccc(N(C)C)cc4)c(=O)n3c2c1`, the displacement stood at 2.1%.

Regarding `COc1ccc(-c2nnc(SCc3ccccc3[N+](=O)[O-])n2-c2ccccc2)cc1`, the displacement was -17.4%.

Regarding `CCc1ccc2oc(-c3cccc(NC(=O)c4ccco4)c3)nc2c1`, the displacement worked out at 2.6%.

Turning to `Cc1nnc(SCC(=O)N2c3ccccc3-c3c(ssc3=S)C2(C)C)s1`, the displacement is 3.1%.

Turning to `CCC(Oc1ccccc1)C(=O)Nc1cccc2c1C(=O)c1ccccc1C2=O` (stereo not drawn), the displacement stood at 9.4%.

Turning to `O=C(CN(c1ccc(F)cc1)S(=O)(=O)c1ccccc1)Nc1ccc(Br)cc1`, the displacement is -0.7%.

As to `CCc1ccccc1NC(=O)c1c(NC(=O)C(C)(C)C)sc2c1CCC2`, the displacement is -12.4%.

For the compound `O=C(NCC1CCCO1)C(=O)Nc1nccs1` (stereo not drawn), the displacement is 10.4%.

For `COc1ccc(NC(=O)CN(Cc2ccccc2)S(=O)(=O)c2ccccc2)cc1Cl`, the displacement was 11.3%.

Consider `Clc1ccc(-c2nc3ccccc3[nH]2)c(Cl)c1`, for which the displacement was -0.9%.

In the case of `CCCC(=O)c1ccc(N2CCN(C(=O)c3ccc(F)cc3)CC2)c(F)c1`, the displacement was -7.8%.

Take `Cc1cc(C)c(S(=O)(=O)N(C)C2CCCCC2)c(C)c1`: the displacement is -11.3%.

Turning to `C=CCn1c(NCCO)nc2sc3c(c2c1=O)CCC3`, the displacement stood at 2.1%.

Take `COc1ccc2c(c1)CCC/C2=N\OC(=O)c1ccccc1F`: the displacement was 11.2%.

As to `COc1cc(C(=O)N2CCN(Cc3ccccc3C(F)(F)F)CC2)cc(OC)c1OC`, the displacement was found to be 11.5%.

As to `CC(=O)/C(C(=N)N1CCN(c2ccccc2)CC1)=C(\C)O`, the displacement was -11.5%.

Regarding `O=C(O)C1CN(S(=O)(=O)c2ccccc2)CCN1S(=O)(=O)c1ccccc1` (stereo not drawn), the displacement worked out at 11.4%.

As for `O=C(/C=C/c1ccc(OCc2ccccc2)cc1)c1cccs1`, the displacement came out at 12.8%.

Regarding `CC(C)(C)NC(=O)C1CN(S(=O)(=O)c2ccccc2)CCN1S(=O)(=O)c1ccccc1` (stereo not drawn), the displacement is -1.3%.

`O=C(C1=C(O)C(=O)N(c2ncc(S(=O)(=O)c3ccc([N+](=O)[O-])cc3)s2)C1c1ccc(F)cc1)c1ccco1` (stereo not drawn): the displacement is 13.1%.

As to `C/C(=C\C(=O)c1ccc(Br)cc1)Nc1ccccc1O`, the displacement was determined as 13.1%.

For `CCOC(=O)C1=C(C)N=c2s/c(=C3\C(=O)N(CC(N)=O)c4ccccc43)c(=O)n2C1c1ccccc1` (stereo not drawn), the displacement amounted to 6.6%.

In the case of `CC(C)CNC(=O)c1cc(-c2ccco2)nc2ccccc12`, the displacement is -0.9%.

In the case of `CC(=O)c1ccc(NC(=O)c2ccc(N3C(=O)c4ccccc4C3=O)cc2)cc1`, the displacement is 11.8%.

With `CSc1ccc(S(=O)(=O)NCc2ccccc2C)cc1`, the displacement stood at 16.3%.

`CC(=O)N1c2ccc(NC(=O)C(F)(F)F)cc2C(C)(c2ccccc2)CC1(C)C` (stereo not drawn): the displacement is 3%.

Consider `CC(=O)c1ccc(-c2ccc([N+](=O)[O-])cc2)s1`, for which the displacement came out at 5.2%.

For the compound `CCOc1cc(/C=C2\C(=O)NC(=O)N(c3cc(C)cc(C)c3)C2=O)c(Br)cc1O`, the displacement is -7.2%.

On to `CCCc1nc2ccccc2n1CC(O)COc1ccc([N+](=O)[O-])cc1` (stereo not drawn), for which the displacement is -8%.

Take `COc1ccc(CC(=O)N(c2ccccc2)c2ccccc2)cc1OC`: the displacement is 0.5%.

Turning to `Cc1ccc(C(=O)NCCN(C)C)cc1`, the displacement was determined as 8%.

For `COc1cc(/C=c2/sc3nc4ccccc4n3c2=O)cc(I)c1OCc1ccccc1`, the displacement is 74.2%.

Turning to `O=C(CSc1nnc(-c2sc3ccccc3c2Cl)n1-c1ccccc1)c1ccc(F)cc1`, the displacement amounted to 7.2%.

As for `CSc1ccc(CN2CCN(S(C)(=O)=O)CC2)cc1`, the displacement is 13.6%.

Take `COc1ccc(C(=O)O/N=C(\N)c2cccc([N+](=O)[O-])c2)cc1OC`: the displacement was -10%.

Take `O=C(COc1ccc(Cl)cc1)N1CCN(c2ccccn2)CC1`: the displacement came to 9.2%.

As for `COC(=O)c1ccc(/C=C2\SC(=Nc3ccc(Br)cc3)NC2=O)cc1`, the displacement is 2.4%.

In the case of `O=C(Nc1ccc(F)cc1)Nc1cccc(NC(=O)Nc2ccc(F)cc2)c1`, the displacement worked out at 0.6%.

Regarding `Cc1ccc(NC(=O)C2COc3ccccc3O2)c(Br)c1` (stereo not drawn), the displacement was -3.3%.

`CCS(=O)(=O)c1ccc(O)c(NC(=O)c2cc(OC)c(OC)c(OC)c2)c1`: the displacement stood at 16.9%.

With `c1ccc(C2=Nc3ccccc3NC(c3ccccc3)C2)cc1` (stereo not drawn), the displacement was -26.7%.

Take `CC(C)c1cc(C(C)C)c(S(=O)(=O)Nc2ccc(S(N)(=O)=O)cc2)c(C(C)C)c1`: the displacement is -2%.

For the compound `CC(C)NC(=O)C12CC3(C)CC(C)(CC(C)(C3)C1)C2`, the displacement was 7.6%.

In the case of `Cc1nn(C(=O)c2ccccc2)c(C)c1Cl`, the displacement worked out at 1.8%.

In the case of `CC(=O)NC12CC3CC(CC(CCC(=O)O)(C3)C1)C2`, the displacement was determined as 7.1%.

In the case of `CC(C)c1ccc(/C=C/C(=O)Nc2ccc(C(N)=O)cc2)cc1`, the displacement was -12.8%.

With `COc1ccccc1NC(=O)c1cc2cc(Br)ccc2oc1=O`, the displacement is -28.1%.

As to `O=C(NCc1ccccc1)c1ccc(OC2CSC2)cc1`, the displacement was -53.6%.

On to `COc1cc(/C=C2\SC(=S)N(NC(=O)c3ccccc3)C2=O)cc(OC)c1OC`, for which the displacement is 2.9%.

As for `O=C(NNC(=O)c1ccco1)Nc1ccc(Cl)c(Cl)c1`, the displacement was determined as 13.8%.

As for `COc1cc(C(=O)Nc2nc3ccc(Br)cc3s2)cc(OC)c1OC`, the displacement amounted to 0.6%.
